Test results from the RNAGym collection of RNA variant scans (doi:10.1073/pnas.2313332121).
This sample is rich in variants without activity.

B1: TPR 5TU (parent)
chain: GGAUCUUCUCGAUCUAACAAAAAAGACAAAUCUGCCACAAAGCUUGAGAGCAUCUUCGGAUGCAGAGGCGGCAGCCUUCGGUGGCGCGAUAGCGCCAACGUUCUCAACUAUGACACGCAAAACGCGUGCUCCGUUGAAUGGAGUUUAUCAUG

Variants of: B1
Assay: polymerase ribozyme fitness, log enrichment relative to wild type (log ratio); higher = more active; in vitro selection for triplet polymerase activity
Procedure, shortened: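 Both subunits of a heterodimeric triplet polymerase ribozyme were given their own mutant library, built by PCR and transcribed. Each library was annealed with a biotinylated primer, the partner subunit and triplets, incubated frozen at −7 °C, and its extended constructs gel-excised, captured on streptavidin beads and amplified by RT-PCR, all in one round done in triplicate. Fitness is the logarithm of genotype enrichment relative to wild-type enrichment, with replicates averaged by inverse-variance weighting. That logarithm is base 2, and Illumina-sequenced genotypes needed ≥10 input reads and ≥1 read per output.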

**Q.** With G11U U45C C57G G59U A66U G94A as the variant, how does the “polymerase ribozyme fitness (log ratio)” value read?
**A.** ≤ -4.2

**Q.** For A12C A19U C43G U55A U82A C93U C96U G141U, which “polymerase ribozyme fitness (log ratio)” value is on record?
**A.** ≤ -4.2

**Q.** With A12C C114U as the variant, how does the “polymerase ribozyme fitness (log ratio)” value read?
**A.** -2.51

**Q.** Which “polymerase ribozyme fitness (log ratio)” value does the source give for G11U C38A G92U G140C A147G G152C here?
**A.** ≤ -4.2

**Q.** With A12C G58A G84U A115U as the variant, how does the “polymerase ribozyme fitness (log ratio)” value read?
**A.** -3.83

**Q.** With A12C A64C C76U C85U G92A C118U G141C A147U as the variant, how does the “polymerase ribozyme fitness (log ratio)” value read?
**A.** ≤ -4.2

**Q.** Which “polymerase ribozyme fitness (log ratio)” value does the source give for G11U C14U U31C A41G G86U C108A C125A here?
**A.** ≤ -4.2

**Q.** With A12G C18U A19C C36A G59C C69U U78G U134C G140U A147C as the variant, how does the “polymerase ribozyme fitness (log ratio)” value read?
**A.** ≤ -4.2

**Q.** With G11U A23C U55C C57A U82A G86A G117U as the variant, how does the “polymerase ribozyme fitness (log ratio)” value read?
**A.** ≤ -4.2

**Q.** Which “polymerase ribozyme fitness (log ratio)” value does the source give for A12C U15G C57U U77G C87A C105G here?
**A.** ≤ -4.2

**Q.** For G11U A12G U15A G58C G94U U151G, which “polymerase ribozyme fitness (log ratio)” value is on record?
**A.** ≤ -4.2

**Q.** With G11C C57G U82A G83U G141U as the variant, how does the “polymerase ribozyme fitness (log ratio)” value read?
**A.** -2.65

**Q.** With A12C A21U G25U C38A A40C A47G A137G as the variant, how does the “polymerase ribozyme fitness (log ratio)” value read?
**A.** ≤ -4.2

**Q.** Which “polymerase ribozyme fitness (log ratio)” value does the source give for A12C C57U C76G C96U here?
**A.** ≤ -4.2

**Q.** Which “polymerase ribozyme fitness (log ratio)” value does the source give for G11U A16U A17C G133C U134A here?
**A.** ≤ -4.2

**Q.** With G11A U33C C87G C149G as the variant, how does the “polymerase ribozyme fitness (log ratio)” value read?
**A.** ≤ -4.2

**Q.** For G11C A16U G46A C87U A89C G94A A113C, which “polymerase ribozyme fitness (log ratio)” value is on record?
**A.** ≤ -4.2

**Q.** Which “polymerase ribozyme fitness (log ratio)” value does the source give for G11U A29U A49C U56A C87A C129U here?
**A.** ≤ -4.2

**Q.** For G11U C69U U134C, which “polymerase ribozyme fitness (log ratio)” value is on record?
**A.** -1.33

**Q.** For G11C U61A U77A C95A, which “polymerase ribozyme fitness (log ratio)” value is on record?
**A.** ≤ -4.2

**Q.** For A12G A29C A40G A64C G68A C79A C87A U101A C103U U130G, which “polymerase ribozyme fitness (log ratio)” value is on record?
**A.** ≤ -4.2

**Q.** Which “polymerase ribozyme fitness (log ratio)” value does the source give for G11A U15C A16G C93A A120U U148G here?
**A.** ≤ -4.2

**Q.** Which “polymerase ribozyme fitness (log ratio)” value does the source give for G11C C54U G59U A60C U77G C85G U134A G141A here?
**A.** ≤ -4.2

**Q.** For G11C G86A C96U A138C G140A, which “polymerase ribozyme fitness (log ratio)” value is on record?
**A.** ≤ -4.2

**Q.** For G11C A41C U44G A60U C87G, which “polymerase ribozyme fitness (log ratio)” value is on record?
**A.** ≤ -4.2

**Q.** For G11U G65C G92U G141A, which “polymerase ribozyme fitness (log ratio)” value is on record?
**A.** ≤ -4.2

**Q.** For A12C C36G G46A C69U A73G G81A G140U, which “polymerase ribozyme fitness (log ratio)” value is on record?
**A.** ≤ -4.2

**Q.** For G11C A20C U31A U55G G83A A97U C105A, which “polymerase ribozyme fitness (log ratio)” value is on record?
**A.** ≤ -4.2

**Q.** With G11C G50U U77G as the variant, how does the “polymerase ribozyme fitness (log ratio)” value read?
**A.** ≤ -4.2

**Q.** Which “polymerase ribozyme fitness (log ratio)” value does the source give for A12G C14U C85U C114A U151A here?
**A.** ≤ -4.2

**Q.** Which “polymerase ribozyme fitness (log ratio)” value does the source give for A12C A37U G88A C93G C105U A106C here?
**A.** ≤ -4.2

**Q.** With G11U C32A G50A C116U A121U C132U U144G as the variant, how does the “polymerase ribozyme fitness (log ratio)” value read?
**A.** ≤ -4.2

**Q.** Which “polymerase ribozyme fitness (log ratio)” value does the source give for A12C C54U G59C G68A A91U C93U C95G A107C A115U here?
**A.** ≤ -4.2

**Q.** For A12G A22U A24U C32G A37U G117U C129G A147U, which “polymerase ribozyme fitness (log ratio)” value is on record?
**A.** ≤ -4.2

**Q.** For G11U A23U G68A U130G U135C, which “polymerase ribozyme fitness (log ratio)” value is on record?
**A.** ≤ -4.2

**Q.** With A12G A52U U53A G59A G71A G81U C87U as the variant, how does the “polymerase ribozyme fitness (log ratio)” value read?
**A.** ≤ -4.2

**Q.** For G11U C35U C51U U55G G59U G68A G80A G83A, which “polymerase ribozyme fitness (log ratio)” value is on record?
**A.** ≤ -4.2

**Q.** With A12G A21C C87A C108U C132G as the variant, how does the “polymerase ribozyme fitness (log ratio)” value read?
**A.** ≤ -4.2

**Q.** With G11A U55A U77G G83C A142U as the variant, how does the “polymerase ribozyme fitness (log ratio)” value read?
**A.** ≤ -4.2

**Q.** For G11C A29U U78A C95U, which “polymerase ribozyme fitness (log ratio)” value is on record?
**A.** ≤ -4.2

**Q.** Which “polymerase ribozyme fitness (log ratio)” value does the source give for G11U U15A G46A G59U C75G C116G A121U here?
**A.** ≤ -4.2

**Q.** Which “polymerase ribozyme fitness (log ratio)” value does the source give for A12C G68C C85U C108U A115C here?
**A.** ≤ -4.2

**Q.** For G11A U55G G74C U77C A98U A115C, which “polymerase ribozyme fitness (log ratio)” value is on record?
**A.** ≤ -4.2

**Q.** Which “polymerase ribozyme fitness (log ratio)” value does the source give for G11U A19G A26U A91G G92A U127C A138G here?
**A.** ≤ -4.2

**Q.** With G11C U31C A37C A39C A119G A142C as the variant, how does the “polymerase ribozyme fitness (log ratio)” value read?
**A.** ≤ -4.2

**Q.** Which “polymerase ribozyme fitness (log ratio)” value does the source give for A12C A28U C54U G74C G92C G126U here?
**A.** ≤ -4.2

**Q.** For G11U A19G G88U, which “polymerase ribozyme fitness (log ratio)” value is on record?
**A.** ≤ -4.2

**Q.** For A12G C27A U31G C35G C85A A97C C99G C149A, which “polymerase ribozyme fitness (log ratio)” value is on record?
**A.** ≤ -4.2

**Q.** For A12C A39G A41U A47C C85U U146G, which “polymerase ribozyme fitness (log ratio)” value is on record?
**A.** ≤ -4.2

**Q.** For G11C A20U U56A U61A U77G A89U, which “polymerase ribozyme fitness (log ratio)” value is on record?
**A.** ≤ -4.2

**Q.** With G11C A19U C93A C95A A147C as the variant, how does the “polymerase ribozyme fitness (log ratio)” value read?
**A.** ≤ -4.2

**Q.** With G11C C63U G83A A115U U135A U146C G152U as the variant, how does the “polymerase ribozyme fitness (log ratio)” value read?
**A.** ≤ -4.2

**Q.** For G11U U15A A28C A49G C129G, which “polymerase ribozyme fitness (log ratio)” value is on record?
**A.** ≤ -4.2

**Q.** For G11C A19C A30U G84A G94U C116U, which “polymerase ribozyme fitness (log ratio)” value is on record?
**A.** ≤ -4.2

**Q.** With A12G A52C G68C U102C A120U C125U U144A as the variant, how does the “polymerase ribozyme fitness (log ratio)” value read?
**A.** ≤ -4.2

**Q.** Which “polymerase ribozyme fitness (log ratio)” value does the source give for G11C A49U G83A C95G A107C here?
**A.** ≤ -4.2

**Q.** With A12C C54U U77G A98G C105G as the variant, how does the “polymerase ribozyme fitness (log ratio)” value read?
**A.** ≤ -4.2

**Q.** Which “polymerase ribozyme fitness (log ratio)” value does the source give for G11C G68U C85A G92C here?
**A.** ≤ -4.2

**Q.** For A12C A24U U31A C54A C72U G86U A97C U146G, which “polymerase ribozyme fitness (log ratio)” value is on record?
**A.** ≤ -4.2

**Q.** For A12G A16C A49C U55A C99U U102C U134C A150G, which “polymerase ribozyme fitness (log ratio)” value is on record?
**A.** ≤ -4.2

**Q.** Which “polymerase ribozyme fitness (log ratio)” value does the source give for A12C C76G U102G U148G here?
**A.** ≤ -4.2

**Q.** For A12C A28U G83A G84U C85G U151A, which “polymerase ribozyme fitness (log ratio)” value is on record?
**A.** ≤ -4.2

**Q.** For A12C U56A U82G G94A A120G U135C U139A, which “polymerase ribozyme fitness (log ratio)” value is on record?
**A.** ≤ -4.2

**Q.** For G11U U31C G50U G59A U61A C76A U139A A142C, which “polymerase ribozyme fitness (log ratio)” value is on record?
**A.** ≤ -4.2

**Q.** With A12C A17G A40U A66G A73U G81C G94U A98G as the variant, how does the “polymerase ribozyme fitness (log ratio)” value read?
**A.** ≤ -4.2

**Q.** For G11U C14G G46A U55A C87U, which “polymerase ribozyme fitness (log ratio)” value is on record?
**A.** ≤ -4.2

**Q.** Which “polymerase ribozyme fitness (log ratio)” value does the source give for G11U A40C A52U G68C G84C A91G C118A C131U here?
**A.** ≤ -4.2

**Q.** Which “polymerase ribozyme fitness (log ratio)” value does the source give for A12G A41C A66G C79U G86C C103A C105A A107G here?
**A.** ≤ -4.2

**Q.** For A12C U13G A40G U82G G94A C118G, which “polymerase ribozyme fitness (log ratio)” value is on record?
**A.** ≤ -4.2

**Q.** With G11U G46A G83U A97C C116G as the variant, how does the “polymerase ribozyme fitness (log ratio)” value read?
**A.** ≤ -4.2

**Q.** For A12C A17U A26U G58C C95U A107U, which “polymerase ribozyme fitness (log ratio)” value is on record?
**A.** ≤ -4.2

**Q.** For A12G A89C C96G, which “polymerase ribozyme fitness (log ratio)” value is on record?
**A.** -1.66

**Q.** With A12G A37C A49U C85U A98G G133C as the variant, how does the “polymerase ribozyme fitness (log ratio)” value read?
**A.** ≤ -4.2

**Q.** For A12C A28G A37U U45A C93U, which “polymerase ribozyme fitness (log ratio)” value is on record?
**A.** ≤ -4.2

**Q.** Which “polymerase ribozyme fitness (log ratio)” value does the source give for A12G A40U G65A G88C C132U G143U here?
**A.** ≤ -4.2

**Q.** Which “polymerase ribozyme fitness (log ratio)” value does the source give for A12C U56A G80C G84U C99A G143U here?
**A.** ≤ -4.2

**Q.** Which “polymerase ribozyme fitness (log ratio)” value does the source give for A12C U33A G92A here?
**A.** ≤ -4.2

**Q.** With A12C C57U G68C C85A C87U C96A as the variant, how does the “polymerase ribozyme fitness (log ratio)” value read?
**A.** ≤ -4.2

**Q.** Which “polymerase ribozyme fitness (log ratio)” value does the source give for G11A U33A C38U C87A here?
**A.** ≤ -4.2

**Q.** With A12C A23U G46C U77G G80U G133A as the variant, how does the “polymerase ribozyme fitness (log ratio)” value read?
**A.** ≤ -4.2

**Q.** With A12C C54U A91U as the variant, how does the “polymerase ribozyme fitness (log ratio)” value read?
**A.** ≤ -4.2

**Q.** With A12G A41G U53A G58A C95U G140U U146G as the variant, how does the “polymerase ribozyme fitness (log ratio)” value read?
**A.** ≤ -4.2

**Q.** Which “polymerase ribozyme fitness (log ratio)” value does the source give for A12C C14U C57G C79A U134A here?
**A.** ≤ -4.2

**Q.** Which “polymerase ribozyme fitness (log ratio)” value does the source give for G11A U33G A66G C75G A91U A107C here?
**A.** ≤ -4.2
